{"source": "PubChem BioAssay AID488969", "about": "(Vanderbilt High Throughput Screening Facility, 2010)", "note": "In all, about 110,000 compounds were measured (“z-score”: median about -0.1, highest 2% from about 2 on). The list shows a part of the results. The source made the active and inactive calls.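 Rule for the calls: active = z-score in the third read window above 3 or below -3; inactive = the rest.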"}
{"target": "Metabotropic glutamate receptor 8 (Rattus norvegicus) (UniProt P70579)", "sequence (P70579 whole entry, looked up)": "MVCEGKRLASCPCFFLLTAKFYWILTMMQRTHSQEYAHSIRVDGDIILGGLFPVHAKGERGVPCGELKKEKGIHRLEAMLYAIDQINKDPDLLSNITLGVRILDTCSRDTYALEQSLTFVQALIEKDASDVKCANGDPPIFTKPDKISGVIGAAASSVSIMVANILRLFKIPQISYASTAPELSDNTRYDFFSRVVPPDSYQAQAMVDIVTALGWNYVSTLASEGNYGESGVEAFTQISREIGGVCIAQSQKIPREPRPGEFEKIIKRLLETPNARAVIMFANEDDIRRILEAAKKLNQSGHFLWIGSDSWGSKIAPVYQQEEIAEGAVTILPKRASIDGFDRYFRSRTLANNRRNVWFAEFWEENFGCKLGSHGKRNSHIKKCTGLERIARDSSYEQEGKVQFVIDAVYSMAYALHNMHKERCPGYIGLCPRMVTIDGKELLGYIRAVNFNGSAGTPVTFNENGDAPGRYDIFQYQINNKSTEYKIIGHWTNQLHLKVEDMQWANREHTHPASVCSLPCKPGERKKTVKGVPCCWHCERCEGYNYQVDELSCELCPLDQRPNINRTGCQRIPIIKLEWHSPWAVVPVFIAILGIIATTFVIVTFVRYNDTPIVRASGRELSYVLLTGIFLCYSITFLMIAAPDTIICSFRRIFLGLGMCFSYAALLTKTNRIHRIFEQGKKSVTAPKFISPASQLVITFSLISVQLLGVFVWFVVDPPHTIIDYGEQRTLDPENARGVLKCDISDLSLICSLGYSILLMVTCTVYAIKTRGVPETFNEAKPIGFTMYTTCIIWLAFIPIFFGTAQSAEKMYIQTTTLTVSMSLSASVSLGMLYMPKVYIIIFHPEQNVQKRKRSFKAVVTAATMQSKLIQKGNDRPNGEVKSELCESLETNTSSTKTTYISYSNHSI", "assay": "mGluR8 Gi/Go-coupled signaling modulation – cell-based, rat, thallium flux, HTS, primary screen (AID 488969)", "conditions": "HEK293 rat mGluR8, GIRK (G protein-gated inwardly rectifying potassium channel) thallium flux, FluoZin2; at 10 µM; stronger effect = higher value; submaximal glutamate (EC20) added with thallium"}
{"smiles": "O=C(Nc1ccc(N2CCOCC2)cc1)Nc1ccc(Cl)c(Cl)c1", "z-score": 0.145}
{"smiles": "CCC(CC)c1nnc(NC(=O)COc2ccc3c(C)cc(=O)oc3c2)s1", "z-score": -0.14}
{"smiles": "CC(C)=C(NC(=O)c1ccccc1)C(=O)N/N=C/c1ccc(O)cc1", "z-score": -0.419}
{"smiles": "CCOc1ccccc1NC(=O)CN(C)S(=O)(=O)c1cccc2nsnc12", "z-score": -0.173}
{"smiles": "CCN(CC(=O)Nc1ccc2c(c1)OCCO2)CC(=O)Nc1cc(C)on1", "z-score": -0.0204}
{"smiles": "O=C(CCc1ccc(S(=O)(=O)NC2CCCCC2)cc1)Nc1ccccc1", "z-score": 0.111}
{"smiles": "COc1ccc(C=O)cc1COc1ccc(Cl)cc1[N+](=O)[O-]", "z-score": -0.077}
{"smiles": "CCOC(=O)C1CCCN(C(=O)Cn2sc3nc(C)cc(C)c3c2=O)C1", "note": "(stereo unspecified)", "z-score": 2.2}
{"smiles": "Cc1cc(C)nc(-n2nc(C)c(Sc3ccc(F)cc3)c2N)n1", "z-score": -1.19}
{"smiles": "Cc1cc(C)cc(N(C(=O)c2sc(C)nc2C)C(C(=O)NCc2ccco2)c2ccccc2)c1", "note": "(stereo unspecified)", "z-score": -0.165}
{"smiles": "Cc1cc(NC(=O)c2ccc(Cn3nc(C)c(Br)c3C)o2)no1", "z-score": -0.686}
{"smiles": "COc1cc(S(=O)(=O)N(CCc2ccccc2)Cc2cccs2)ccc1-n1cnnn1", "z-score": 0.146}
{"smiles": "CCCNC(=O)N(C)c1nncnc1C(=O)NC", "z-score": 0.0642}
{"smiles": "Cn1c(=O)c(C(=O)CSc2nnc(Nc3ccccc3)s2)c(N)n(Cc2ccccc2)c1=O", "z-score": -0.199}
{"smiles": "CN(Cc1ccccc1)c1nc2c(c(=O)[nH]c(=O)n2C)n1C", "z-score": 0.107}
{"smiles": "CC(=O)C1=C(C)NC(SCC(=O)c2ccc(Cl)cc2Cl)=C(C#N)C1c1ccco1", "note": "(stereo unspecified)", "z-score": -2.68}
{"smiles": "CC(C(=O)N1CCc2ccccc21)N1CCc2ccccc2C1", "note": "(stereo unspecified)", "z-score": -0.627}
{"smiles": "COC(=O)c1ccc(COC(=O)c2ccc(SC)cc2OC)cc1", "z-score": -0.178}
{"smiles": "O=C(O)C1C2C=CC(C2)C1C(=O)NCc1ccoc1", "note": "(stereo unspecified)", "z-score": -0.258}
{"smiles": "c1ccc(Oc2nnc(-c3cccs3)c3ccccc23)cc1", "z-score": -0.0698}
{"smiles": "Cc1ccc(Cl)cc1NC(=O)COC(=O)c1ccc(COc2ccc3c(C)cc(=O)oc3c2)cc1", "z-score": 0.734}
{"smiles": "CCN1CCN(c2ccc(NC(=O)COc3ccccc3Cl)cc2)CC1", "z-score": 0.599}
{"smiles": "CCCN(CCC)C(=O)CSc1nc2ccsc2c(=O)n1NC(=O)c1ccccc1", "z-score": 0.146}
{"smiles": "CCn1c(SCc2nc3ccccc3s2)nnc1-c1cccs1", "z-score": 0.633}
{"smiles": "Cc1nc(NC(=O)CC(C)C)sc1-c1csc(Nc2ccc(Cl)cc2)n1", "z-score": 0.0734}
{"smiles": "CC1CC(=O)c2cnc(N)nc2C1", "note": "(stereo unspecified)", "z-score": -0.0715}
{"smiles": "CCOC(=O)C1CCCN(C(=O)c2cn(CC)c3ccc(S(=O)(=O)N(C)C)cc3c2=O)C1", "note": "(stereo unspecified)", "z-score": -0.191}
{"smiles": "CCOC(=O)N1CCN(C(=O)CCSc2ccc(Cl)cc2)CC1", "z-score": -0.00941}
{"smiles": "Cc1c(/C=C/C(=O)c2ccc(O)cc2)cnn1C", "z-score": 0.00575}
{"smiles": "COc1ccc(NC(=O)c2ccccc2[N+](=O)[O-])cc1", "z-score": -0.084}
{"smiles": "COc1ccc(Cl)cc1NC(=O)c1ccco1", "z-score": -0.426}
{"smiles": "O=C(ONC1=NCCCCC1)c1ccc(Cl)cc1", "z-score": 0.263}
{"smiles": "O=C1CC(c2ccncc2)c2cc3c(cc2N1)OCO3", "note": "(stereo unspecified)", "z-score": 0.106}
{"smiles": "COc1ccc(CNC(=O)Cc2csc(Nc3nc(=S)[nH]c4ccccc34)n2)cc1", "z-score": "active: 8.83"}
{"smiles": "NS(=O)(=O)c1ccc(CNC(=O)NC23CC4CC(CC(C4)C2)C3)cc1", "z-score": 0.0645}
{"smiles": "CCOC(=O)N1CCC(NC(=O)c2cc3c(=O)n(C)c4ccccc4c3n2C)CC1", "z-score": -0.597}
{"smiles": "CN(C(=O)CSc1nc(-c2ccccc2)cs1)C1CCS(=O)(=O)C1", "note": "(stereo unspecified)", "z-score": 0.052}
{"smiles": "O=C(COc1ccccc1[N+](=O)[O-])N/N=C/c1ccc(OC(=O)c2ccco2)cc1", "z-score": -0.205}
{"smiles": "COC(=O)C1C(c2ccccc2)C(C(=O)OCc2ccco2)C1c1ccccc1", "note": "(stereo unspecified)", "z-score": -0.315}
{"smiles": "CC(C)c1nc(SCc2ccccn2)c2c(=O)n(C)c(=O)n(C)c2n1", "z-score": -0.406}
{"smiles": "Cc1ccc(Nc2nc(N)nc(CSc3ncccn3)n2)cc1", "z-score": -0.0719}
{"smiles": "Cc1ccc(-c2nn(C)c(=O)c3ccccc23)cc1CNC(=O)Cn1nc(-c2ccccc2)c2ccccc2c1=O", "z-score": 0.228}
{"smiles": "COCCn1c(SCC(=O)Nc2cccc(OC)c2)nnc1-c1ccccc1", "z-score": -0.0116}
{"smiles": "COCCn1c(SC(C)C(=O)Nc2ncc(Cl)cc2Cl)nc2ccccc21", "note": "(stereo unspecified)", "z-score": -0.715}
{"smiles": "COc1ccc(-c2cc(C(F)(F)F)nc(-n3cc(Br)cn3)n2)cc1", "z-score": 0.00444}
{"smiles": "O=C(Cn1c(-c2ccccc2)noc1=O)Nc1ccc(S(=O)(=O)N2CCOCC2)cc1", "z-score": -0.436}
{"smiles": "CCN(CCCNC(=O)C1CCN(S(=O)(=O)c2cnc[nH]2)CC1)c1ccccc1", "z-score": 0.524}
{"smiles": "O=C(NCC1CCCO1)c1cccc(F)c1", "note": "(stereo unspecified)", "z-score": 0.371}
{"smiles": "CCCc1nnc(NC(=O)COC(=O)c2cc(C)nc3ccccc23)s1", "z-score": -2.17}
{"smiles": "Cc1cc(Oc2ccc(Cl)cc2)nc(-c2ccccc2O)n1", "z-score": 0.0564}
{"smiles": "FC(F)(F)c1nnc(-c2ccccc2)nc1Sc1ccc(Cl)cc1", "z-score": -0.153}
{"smiles": "CCc1cc(C)cc(OCCNC(=O)c2cncc(Br)c2)c1", "z-score": -0.232}
{"smiles": "CCOC(=O)C(C)Oc1ccc(C2NC(=O)NC(C)=C2C(C)=O)cc1Br", "note": "(stereo unspecified)", "z-score": -0.0567}
{"smiles": "CCC(=O)Nc1ccc(NC(=S)NC(=O)Cc2ccccc2)cc1", "z-score": -0.137}
{"smiles": "Cc1sc(-n2cccc2)c(C(=O)O)c1C", "z-score": 0.57}
{"smiles": "Cc1ccc(N=C/C(C(=O)C(F)(F)F)=C(\\O)c2ccco2)cc1Cl", "z-score": -0.586}
{"smiles": "O=C(O)CNc1nc(-c2ccccc2)nc2ccccc12", "z-score": -0.364}
{"smiles": "Cc1c(N(C)C(=O)c2ccco2)c(=O)n(-c2ccccc2)n1C", "z-score": 0.117}
{"smiles": "COc1ccc(C)cc1S(=O)(=O)Nc1ccc(F)cc1", "z-score": -0.036}
{"smiles": "O=c1c(C=Nc2ccc(Cl)cc2)c[nH]n1-c1cccc(Cl)n1", "z-score": 0.0943}
{"smiles": "CC1CCN(CC(=O)Nc2ccccc2-c2ccccc2)CC1", "z-score": 0.156}
{"smiles": "CCCCCOc1ccc(Cn2ccnc2)cc1[N+](=O)[O-]", "z-score": -0.465}
{"smiles": "COC(=O)c1n[nH]c2ccccc12", "z-score": -0.241}
{"smiles": "COc1ccc(CC(=O)Nc2c3c(nn2-c2cccc(Cl)c2)CS(=O)(=O)C3)cc1", "z-score": -0.191}
{"smiles": "CCOC(=O)c1ccccc1NC(=O)N1CCn2c(C)ccc2C1CC", "note": "(stereo unspecified)", "z-score": -0.523}
{"smiles": "O=C1C2Sc3[nH]c(=O)sc3C(c3ccccc3)C2C(=O)N1c1ccc(Cl)cc1", "note": "(stereo unspecified)", "z-score": 0.118}
{"smiles": "CCN(CC)CCCNC(=O)C1CCCN(c2nnc(N3CCCC3=O)s2)C1", "note": "(stereo unspecified)", "z-score": -0.048}
{"smiles": "O=C(c1cc(-c2ccc(O)cc2)on1)N1CCc2ccccc2C1", "z-score": -0.857}
{"smiles": "COc1ccc(NC(=S)N2CCN(c3ccccn3)CC2)cc1", "z-score": -0.0875}
{"smiles": "COc1nc(OCC#N)nc(N(C)C)n1", "z-score": 0.0977}
{"smiles": "Cc1ncc([N+](=O)[O-])n1CCOC(=O)NC(NCc1ccccc1)C(Cl)(Cl)Cl", "note": "(stereo unspecified)", "z-score": -0.109}
